The results in this text go back to PubChem BioAssay AID1240 (Sanford-Burnham Center for Chemical Genomics, 2008).

Screen size: about 50,000 compounds; about 800 (1.6%) showed an effect of 50% or more. This is one part of the list.

The assay has as its target Bcl-2-like protein 10 (Homo sapiens) (UniProt Q9HD36). As to the kind of experiment: Phenotype converters, Bcl-B/TR3 peptide binding displacement, primary biochemical FP (AID 1240).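 Further: 0% = Bcl-B with tracer peptide and DMSO and 100% = tracer peptide lacking Bcl-B.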 As to conditions: GST-Bcl-B / FITC-TR3 peptide fluorescence polarization; stronger effect = higher value; compound at 3.75 mg/L. On the technique in general: Fluorescence polarisation rises when a labelled molecule tumbles more slowly, as on binding a larger partner.
Chain of UniProt Q9HD36 (Q9HD36 whole entry, looked up): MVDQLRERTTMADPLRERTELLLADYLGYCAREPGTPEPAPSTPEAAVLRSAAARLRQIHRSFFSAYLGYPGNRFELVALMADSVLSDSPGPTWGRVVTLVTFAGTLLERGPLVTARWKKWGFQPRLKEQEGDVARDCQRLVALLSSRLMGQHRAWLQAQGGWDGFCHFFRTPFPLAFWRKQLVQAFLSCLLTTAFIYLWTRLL
With `COc1cc2ccccc2cc1C(=O)Nc1ccc2[nH]c(=O)[nH]c2c1`, the displacement was 7.3%.
For the compound `COC(=O)c1ccccc1NC(=O)/C=C/c1ccccc1`, the displacement is 16.4%.
On to `Cc1nnc(C)n1/N=C\c1ccc(C(F)(F)F)cc1`, for which the displacement was -10%.
To `CC(CO)(CO)Nc1ccc(C(F)(F)F)cc1[N+](=O)[O-]` belongs -4.5%; to `O=C(Nc1ccc(Cl)cc1)c1cc2n(n1)C(C(F)(F)F)CC(c1ccccc1)N2` (stereo not drawn), 3.4%; to `NC(=O)c1ccccc1N=Cc1ccccc1[N+](=O)[O-]`, -18%.
With `CCCCC(=O)NNC(=O)COc1ccc(Cl)cc1`, the displacement is -14.6%.
Under `COC(=O)C1=C(C)N(C)C(C)=C(C(=O)OC)C1c1ccc(OC)c(OC)c1` stands -6.4%; under `O=C(O)COc1ccc(/C=C2/C(=O)NC(=O)N(c3ccccc3)C2=O)cc1`, -18.9%; under `COc1ccc(OC)c(CN2CCN(S(C)(=O)=O)CC2)c1`, -14%.
Under `CCN1C(=O)/C(=C\c2ccc(C)cc2)SC1=S` stands 2.3%; under `Cc1ccc(C2C(C#N)=C(N)Oc3n[nH]c(C)c32)o1` (stereo not drawn), 2.3%.
On to `O=c1[nH]c(O)c(C=Nc2ccc(F)c(F)c2)c(=O)[nH]1`, for which the displacement stood at 166%.
For `Cc1ccc(-c2nc3ncccc3o2)cc1NC(=O)c1ccc(-c2ccc(F)cc2)o1`, the displacement was determined as 2.2%.
Turning to `CCOc1ccc(CNc2cc([N+](=O)[O-])ccc2OC)cc1`, the displacement is -17.2%.
To `COC(=O)C1=C(C)NC2=C(C(=O)c3ccccc32)C1c1ccc(OCc2ccccc2Cl)c(Cl)c1` (stereo not drawn) belongs 7.8%; to `Cc1ccccc1OCCCCc1c(C)n[nH]c1C`, -8%.
Consider `COc1ccc(OC)c(NC(=O)c2ccc(CN3CCOCC3)cc2)c1`, for which the displacement is -3.1%.
Turning to `COc1ccc(-c2c(C)nn(-c3ccccc3)c2N)cc1OC`, the displacement was -1.2%.
Turning to `O=C(N/N=C/c1c(Sc2ccccn2)nc2ccccn2c1=O)c1ccccc1`, the displacement amounted to 39.3%.
Regarding `CCOc1ccc(NS(=O)(=O)c2ccc(Br)cc2)cc1`, the displacement is -12.9%.
Under `CC(=O)N1C(c2cnc(-c3ccccc3)c(C)c2)CC=C(C)C1c1ccccc1` (stereo not drawn) stands -4%.
Under `O=C(O)c1cc(O)ccc1-c1ccc(O)cc1` stands 13.8%.
To `CCCCOc1ccc(NC(=O)C2CC(=O)N(c3ccc(C)cc3)C2)cc1` (stereo not drawn) belongs 8%; to `CN1CCN(c2nc3ccccn3c(=O)c2/C=C2\SC(=S)N(Cc3ccco3)C2=O)CC1`, -58.4%; to `Cc1cc(/C=C2\C(=O)NC(=S)N(c3ccc(Br)cc3)C2=O)c(C)n1-c1cccnc1`, 0.7%.
With `COc1cc(NS(=O)(=O)c2ccc(Cl)cc2)c(OC)cc1Br`, the displacement worked out at 10.5%.
Under `Cc1ccc(N2C(=O)CSC2c2cccc([N+](=O)[O-])c2)c(C)c1` (stereo not drawn) stands 0.2%; under `O=c1oc2cc(OCc3ccccc3)c(Cl)cc2c2c1CCCC2`, -8.8%.
To `COc1ccc(/C=C/C(=O)N2CCOCC2)cc1OC` belongs 9.4%; to `O=C(NC1CCCCCC1)c1c(F)c(F)c(F)c(F)c1F`, -5.3%; to `O=C(CN1C(=O)c2cccc3cccc(c23)C1=O)NCCN1CCOCC1`, 11.3%.
On to `COC(=O)c1n[nH]c(=O)c2ccccc12`, for which the displacement is -5.1%.
Turning to `O=C(CSc1nnnn1-c1ccccc1)c1ccc(-c2ccccc2)cc1`, the displacement was 12.2%.
To `COc1cccc(OC)c1C(=O)NCc1ccc(C)cc1` belongs 2.7%; to `CCC(C)C(C(=O)O)N1C(=O)NC2NC(=O)NC21` (stereo not drawn), -4.7%.
As for `COC(=O)c1c(N)sc(C(=O)Nc2ccc(C)cc2)c1C`, the displacement was found to be 2.8%.
Under `O=C(Nc1ccc(N2CCOCC2)cc1)c1ccc(-c2cccc(Cl)c2)o1` stands -7.3%; under `COc1ccc(CCNC(=O)C2CC2c2ccccc2)cc1OC` (stereo not drawn), -0.9%; under `CCOc1ccc(N=CC2=C(O)CC(c3ccccc3)CC2=O)cc1` (stereo not drawn), -4.6%.
To `c1ccc2c(c1)ncn2CCN1CCCCC1` belongs 4.5%; to `C=CCN1C(=O)/C(=C\c2cc(Cl)c(OCc3ccccc3F)c(OC)c2)SC1=S`, 11.5%.
Regarding `Cc1cc(C)n(S(=O)(=O)c2ccc(Br)cc2)n1`, the displacement came out at 0.8%.
Turning to `O=[N+]([O-])c1ccc(N/N=C/c2ccc(-c3ccc(Cl)cc3)o2)cc1`, the displacement was -4%.
To `CCOC(=O)c1c(NC(=O)CNC(C)C)sc2c1CCC2` belongs -7.4%.
To `Cn1c(-c2cc3ccc(O)c(CN4CCOCC4)c3oc2=O)nc2ccccc21` belongs 19.1%; to `COc1ccc(Cl)cc1C(=O)Nc1ccc(Cl)cc1`, -6.4%.
In the case of `N/C(=N\OC(=O)c1cccc(Br)c1)c1cccnc1`, the displacement was 1.7%.
In the case of `COc1ccc(CCNCCCc2ccccc2)cc1OC`, the displacement came out at 7%.
Under `Cc1ccc(OCCCNC(C)(C)C)c(C(C)(C)C)c1` stands 4.6%.
Under `CCOc1ccc2cc(C=O)c(=O)[nH]c2c1` stands -8.8%; under `Cc1c(-c2ccccc2)nc2ccccc2c1C(=O)Nc1ccc(N(C)C)cc1`, 45.3%.
Take `O=c1oc2ccc(Br)cc2cc1-c1csc(-c2cc3cc([N+](=O)[O-])ccc3oc2=O)n1`: the displacement was -5.4%.
In the case of `Cc1cc(C)n(C(=O)c2ccc(C(C)(C)C)cc2)n1`, the displacement was -8.1%.
As for `CC(C)CC(=O)Nc1nc(-c2ccc(Cl)c(Cl)c2)cs1`, the displacement is -6.5%.
Regarding `O=[N+]([O-])c1ccccc1N[C@H]1O[C@H](CO)[C@@H](O)[C@@H]1O`, the displacement was found to be 6%.
To `O=C(COc1ccc(Cl)cc1Cl)Nc1ccc2c(c1)oc1ccccc12` belongs -10.3%.
To `Cc1ccc(SCCNC(=O)CN(c2cccc(Cl)c2)S(=O)(=O)c2ccccc2)cc1` belongs 1.6%; to `O=C(CSc1ccccn1)N1c2ccccc2Sc2ccccc21`, 13.3%; to `CC1=CC(C)C(COC(=O)Nc2ccccc2)C(C)C1` (stereo not drawn), 9.8%.
`COc1ccc(/C(O)=C2\C(=O)C(=O)N(CCc3ccccc3)C2c2cccc(F)c2)cc1` (stereo not drawn): the displacement came to 7.9%.
To `FC(F)(F)c1cccc(NC(=S)NCc2ccc3c(c2)OCO3)c1` belongs -6.8%; to `COC(=O)C(=C/C(C)=C/N1CCOCC1)C(=O)OC`, 15.2%; to `Nc1nc2ccccc2n1/N=C/c1ccc([N+](=O)[O-])cc1`, 5.8%.
Under `NC(=O)c1cccc2c1-c1ccccc1/C2=N\O` stands 2.8%; under `Cn1ccnc1SC/C=C/CSc1nccn1C`, -3.5%.
Under `CNC(=O)c1ccc(C(=O)c2cc(OC)ccc2OC)cc1` stands -6.6%.
As for `O=[N+]([O-])c1ccccc1S(=O)(=O)Oc1ccc(/C=N/n2cnnc2)cc1`, the displacement was 2.2%.
As to `NS(=O)(=O)c1ccc(CCNC2CC(=O)N(c3ccc(Cl)cc3)C2=O)cc1` (stereo not drawn), the displacement was -6.1%.
Under `O=C1C=CC(=O)N1c1ccc(Cl)cc1[N+](=O)[O-]` stands -9%.
As for `Cc1cc(F)ccc1NCc1ccncc1`, the displacement turned out to be 6.3%.
As for `CC1(C)CC(=O)C2=C(C1)NC1=C(C(=O)CC(C)(C)C1)C2c1ccccc1`, the displacement came to 0.8%.
Regarding `Cc1cc(C(=O)N/N=C/c2cc(Br)ccc2O)n[nH]1`, the displacement is -21%.
